Data taken from the supplement of paper PMC11417369.
± gives the standard deviation of the averaged measurements. The list shows a part of the results.

These sequences were tested on PfAP2-LT AP2 domain (GST-tagged) (assay: gcPBM binding intensity (ln(normalized median fluorescence intensity)); higher = stronger DNA binding).
Outline: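 Plasmodium falciparum DNA-binding domains carrying a GST tag were expressed in E. coli and applied for 1 h, at about 25 μg on average, to an Agilent 4 × 180k array. The array held primer-extended double-stranded 36-bp intergenic genomic probes together with negative controls, and binding took place in 1× PBS with 1% milk, 0.2 mg/ml BSA, 0.5% salmon testes DNA and 0.03% Triton X-100. An Alexa488 anti-GST antibody detected bound protein, and the array was scanned at 488 nm. Binding intensity is taken as the highest Masliner-normalised natural-log median intensity across replicate spots of either probe orientation.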

| Sequence | gcPBM binding intensity (ln) |
| --- | --- |
| CATTTTATAAAAACAAGTACCCAACATATATATAAT [XGTACX_site5955] | 8.75 ± 0.41 |
| TTTTTTTCTTAAAGATGTACTTTTTAAAAACAATCT [XGTACX_site986] | 8.22 ± 0.67 |
| GATGAGGACAGACACACACACATAAGTTGATACATA [CACACA_site7580] | 9.62 ± 0.44 |
| GTTTTTACTTTTATCTGTACATAATACTACCAATAT [XGTACX_site5414] | 8.86 ± 0.46 |
| TATATATTAAGATGCACACACAAGAAGTAATTATAA [CACACA_site5726] | 9.25 ± 0.37 |
| ATTTTTTCTTATAAAAAAGAAAAAGAAAAAGAAAAA [CACACA_negctrl_site1216] | 8.02 ± 0.42 |
| ACAGCTCTAGGACATGCATGTTATATAGAAAAAGAG [TGCATGCA_site703] | 8.94 ± 0.5 |
| TTCTTTATATAAACAAGTACATATAAAATACATATA [XGTACX_site8036] | 8.43 ± 0.38 |
| AAGTTAATGTTTTGCGCACACTTCTTTTTAATATAA [CACACA_site3938] | 9.29 ± 0.35 |
| TTCATTAAAGTTATTACACACAGTTCTTCAACCAAA [CACACA_site7613] | 8.77 ± 0.42 |
| AAATACATATTTAGAAGTACATTTATACATTTAATA [XGTACX_site8871] | 8.64 ± 0.39 |
| TATAATTTTTTTGAATTATATATATATATATATAAT [XGTACX_negctrl_site26] | 8.6 ± 0.27 |
| ATAATATTATGAACCTGTACATAATTTTTCTTTTCT [XGTACX_site3377] | 8.62 ± 0.51 |
| TGATATAAAATTAAAGTGCAAAAAAAAAATAAAAAA | 8.8 ± 0.54 |
| AGTATATTTCTAACTTGTACGAAATTAATAATTTAT [XGTACX_site6635] | 8.48 ± 0.45 |
| TATATATAATATGAATGTACACAAAAAGGTAATACA [XGTACX_site6202] | 9.11 ± 0.62 |
| AAAAAAAAGAAATAGACACACATATATTTTTAAACA [CACACA_site3954] | 8.73 ± 0.61 |
| TAAGGGAGAGATTTGTATCATAAGCAACTTTCAAAA [CACACA_negctrl_site1436] | 8.48 ± 0.35 |
| TTATAATTAAATTTCACACAGTTCATAACATAATTA [CACACA_site5501] | 8.47 ± 0.42 |
| TTTATATGTTTTAAGTGTACACATATAATGTATTTT [XGTACX_site3069] | 8.78 ± 0.46 |
| ACTTTCAACATGAAGTTGCACTTTTTTTTTTTTCTT | 8.79 ± 0.49 |
| AGCCCTTTTTTTTTTTAGAATATTGCATAATTATAT [XGTACX_negctrl_site546] | 8.79 ± 0.36 |
| TATATAAATATATCCACACACATACCTATATTAATA [CACACA_site6184] | 9.24 ± 0.25 |

| Sequence | gcPBM binding intensity (ln) |
| --- | --- |
| GTATTGTATGGATGGGGTACTATATATATATATTTT [XGTACX_site1694] | 9.37 ± 0.14 |
| AGACAATATTAATAAGGTACACATATATATTAAAAA [XGTACX_site6709] | 8.87 ± 0.57 |
| TAATTAAATAAAAAAAAATATATATATATATATATA [XGTACX_negctrl_site616] | 9.46 ± 0.25 |
| TTTTTTAAAAATAACTGTACAGAGGCTGTTAGGATA [XGTACX_site2521] | 8.57 ± 0.43 |
| TCCATATGCATGTATTGTACTGTAATATATTAAAAA [XGTACX_site472] | 8.56 ± 0.24 |
| AAAAAAAAAAAAGAAACACACACATATATATATATA [CACACA_site8525] | 9.94 ± 0.3 |
| AGCAGTCGACAGGACAGTACACAGTAGCCAGGAAAT [XGTACX_site4929] | 9.25 ± 0.49 |
| TAAATATATAAATACACACACACCAAAGCAATAGAT [CACACA_site5605] | 9.985 ± 0.078 |
| TTTGATAATAAGATATAATACTTAAATATATATATA [GTGCAC_negctrl_site339] | 8.4 ± 0.38 |
| TATTTTACGCGGTTTATAATGACATGTTCTATATTT [CACACA_negctrl_site1184] | 9.01 ± 0.45 |
| AAATATATATTCAAAAGTACACAATTTGTTAATAAT [XGTACX_site8917] | 8.77 ± 0.39 |
| CACACTTGCTCCTGTTGTACATAACCATAAGCAACA [XGTACX_site2102] | 8.79 ± 0.4 |
| TGAATATAACAAATATGTACTTAAAATTGTTATATT [XGTACX_site5679] | 8.54 ± 0.46 |
| ATTATTAAAAATATGGGTACATATTATTGTTATATA [XGTACX_site1958] | 8.56 ± 0.43 |
| AAAAAAAAAAAAAAATGTACATGACATGACATGACA [XGTACX_site4020] | 8.68 ± 0.45 |
| TTATATTTTACAAATGCACACATAATTTTTTTTTTT [CACACA_site8890] | 8.84 ± 0.54 |
| AAACTTTACATTACTTGTACATATATTCTATATAAT [XGTACX_site8640] | 9.05 ± 0.41 |
| TAAAGAAATAAATACATACACACATATATATATATA [CACACA_site3363] | 9.64 ± 0.15 |
| TTATAAATAATGAGAAACATTAAATTTAATCATAAA [CACACA_negctrl_site523] | 8.36 ± 0.47 |
| TTTAGTGTTATAAAAAGTACATAATAATTCCTTTTC [XGTACX_site3208] | 8.37 ± 0.47 |
| AAAAATTCAATAGGACGTACTAAAACATTCATTAAT [XGTACX_site1712] | 8.84 ± 0.36 |
| TACTATATATATATATATATATATATATATATTTAT [GTGCAC_negctrl_site593] | 9.15 ± 0.15 |
| AAAATGTAATATTGGGTGCACAATAAGTTTGATGTC | 9.14 ± 0.47 |

| Sequence | gcPBM binding intensity (ln) |
| --- | --- |
| TAGTATTAAATATATACACACATATATACCTATAGA [CACACA_site5219] | 8.95 ± 0.45 |
| TGAAAAGATAAAAAAAGTACACACACACATATATAT [XGTACX_site6504] | 9.765 ± 0.021 |
| TTATATAAAGAATGTACACACAGAAATGCACAGACA [CACACA_site5288] | 9.2 ± 0.44 |
| AATATGTACAGACATACACACATATTTATATTTATA [CACACA_site6694] | 9.05 ± 0.39 |
| GCTTATATTAATAAGGTGCTTTTTATTTCGTGTGTA [GTGCAC_site9649] | 9.05 ± 0.37 |
| TCATAGTATAAACACACACACACACCCATATATATA [CACACA_site8512] | 10.1 ± 0.31 |
| AGAATGGTTTATAAAGGTACGTAATTTTTAATTTTA [XGTACX_site383] | 8.54 ± 0.54 |
| ATATGTCCATATAGTAAATGTTACATTTTAAAGCGC [XGTACX_negctrl_site168] | 8.8 ± 0.39 |
| AAAATATTTATTTTTTGTACACATAAAAACGCACTT [XGTACX_site4132] | 8.71 ± 0.45 |
| CATATTTTGTGAAAAAGTACATATATATATATATAT [XGTACX_site6295] | 9.63 ± 0.2 |
| ATTCTTAAAAAATAAGTGCAAAATAATTAAATAAAT | 8.69 ± 0.47 |
| AAACGTATTCTATAAAGTACATTATTATAGTAGACC [XGTACX_site8068] | 8.78 ± 0.39 |
| TATTGAATAAAATGCACACGCATGCGTTATTTATTA [CACACA_site3479] | 9.02 ± 0.35 |
| TAAAAAAATTATATTTGTACATATTAATATAGCCTT [XGTACX_site4833] | 8.56 ± 0.34 |
| GATTTTTTTTTTTTTTCACACACTAATAATATTATC [CACACA_site464] | 9.1 ± 0.44 |
| TGTTTATGTATCAATTGTACAAAAAAAAAAAAAAAA [XGTACX_site1590] | 8.32 ± 0.49 |
| TTCAAAAAAATGTATACACACATAAGTATAATATAA [CACACA_site3758] | 8.86 ± 0.53 |
| ATAAATGAAAAAAAGCGTACATATAAAAAAATATAT [XGTACX_site5063] | 9.02 ± 0.44 |
| ACTTACCCATTTATTACACACATAAAGGAAAATTTT [CACACA_site4873] | 8.95 ± 0.4 |
| TGTAAATAATATAATAGTACGCATATTTTTATTGAA [XGTACX_site284] | 8.68 ± 0.52 |
| CTTATGTGCATACCTACACACTTACAGATATATATA [CACACA_site5622] | 8.87 ± 0.43 |
| TAGGAAGAATTACTGTGTACTAAAATATTAAAAAGT [XGTACX_site4909] | 8.72 ± 0.55 |
| TTCAAATATTTTATTTGTACATAAAAAAGAAAGTTA [XGTACX_site8287] | 8.31 ± 0.57 |

| Sequence | gcPBM binding intensity (ln) |
| --- | --- |
| CATAAGAAAATAAAAACATGCACATAAGAAATATAC [TGCATGCA_site842] | 9.22 ± 0.52 |
| AATCTTCATACCAACACATGCACAAAAGAAATAAAA [TGCATGCA_site563] | 8.99 ± 0.45 |
| ATATAAATATATGGAAGTACACAAAAAAATTAAAAA [XGTACX_site8624] | 8.78 ± 0.68 |
| TATATTTATACATATTGTACATTTTATACTTTTACA [XGTACX_site3884] | 8.88 ± 0.42 |
| ATTTATAATCAGGGTTGTACACTTATAGAATTTTTA [XGTACX_site4175] | 8.57 ± 0.45 |
| GTCGCATTTTATACAAGTACACATGAATTATACAAC [XGTACX_site2200] | 8.87 ± 0.36 |
| TAAATAATATCTATCACACACGCATATATACATATA [CACACA_site2622] | 9.07 ± 0.38 |
| ATTATTAAAAAGATGTAAATAAATGAATATATGCTT [CACACA_negctrl_site539] | 8.65 ± 0.49 |
| ATATAGTATAATAAAAGTACATTTTGATTTTTTCTC [XGTACX_site1797] | 8.44 ± 0.48 |
| TATTAAGAATTTACATGTACTTGTTAAATAAGAAAA [XGTACX_site4466] | 8.37 ± 0.42 |
| TTCTATATATTTTAATGTACATATATGATTATTCTT [XGTACX_site8294] | 8.82 ± 0.49 |
| AATAAAATGAGATGTTGTACAGTTTTGATATATGCA [XGTACX_site3052] | 8.78 ± 0.47 |
| ATATATATATATAAAAGTACATGCTTATATATATAT [XGTACX_site3786] | 8.99 ± 0.35 |
| TTTAAAAATGCTACATGTACAAAATAAAATATAATA [XGTACX_site2905] | 8.79 ± 0.49 |
| AAGTTTATCACAGCCACGCACACATAATATATGTAT [CACACA_site3670] | 9.34 ± 0.46 |
| CACCCACTAATAAACACACACATATATATATATATA [CACACA_site389] | 10.3 ± 0.18 |
| TATATAAACATACATACACACATACAATAAGTAAAA [CACACA_site5118] | 9.31 ± 0.31 |
| ATTTTTTTTATTCAATGTACTTTTTTTTATATATAT [XGTACX_site4978] | 8.8 ± 0.45 |
| TACAAAATATATATGACACACATAAAAAAAAGTATA [CACACA_site1373] | 9.13 ± 0.52 |
| AATAAAAAACTACAATATACAAAATTATTAAATCAA [GTGCAC_negctrl_site703] | 8.68 ± 0.48 |
